Source: US9505768B2, “Compositions and methods for modulating TLR4” (The Regents of the University of California, priority 2012, dated 2016)
At least one read-out could not be matched to a standard name with certainty.

Experiments:
Format in all cases: cell-based
[1] = test system: mouse bone marrow derived dendritic cells (mBMDC); experiment: IL-6 induction in mouse bone marrow derived dendritic cells (ELISA); details: titrated doses 312 nM to 10 μM, 18 h, Cmpd 1 set at 100
Protocol: The above assays were utilized to compare the derivatives of the lead pyrimidoindole for their ability to activate mouse and human TLR4. […] Each cytokine induction curve was first converted to a percent activity curve, and then the AUC of the percent activity curve was calculated. The process of converting to a percent activity curve allowed subtracting background and adjusting for plate-to-plate variation.
(§1) BMDC were prepared from C57BL/6 mice as described. See e.g., Wu, C. […] BMDC (10^5 cells per well) were plated in 96-well plates in 200 μL of complete RPMI1640 supplemented with 10% fetal calf serum (FCS; Sigma Aldrich), 100 U/mL penicillin, and 100 μg/mL streptomycin (Invitrogen). […] After 18 h incubation, the cell culture supernatants were collected. LPS (purified LPS, Invivogen, San Diego, Calif.) or MPLA (1 μg/mL synthetic MPLA, Invivogen, San Diego, Calif.) were used as positive controls. […] The AUC was calculated from BMDC dose-response curves using Prism 5 (GraphPad, San Diego). Each cytokine induction curve was first converted to a percent activity curve, and then the AUC of the percent activity curve was calculated. The process of converting to a percent activity curve allowed subtracting background and adjusting for plate-to-plate variation.

[2] = test system: mouse bone marrow derived dendritic cells (mBMDC); experiment: IP-10 induction in mBMDC (ELISA), surrogate marker of type I IFN; details: all compounds tested at 5 μM, Cmpd 1 set at 100
Protocol: In addition to the production of inflammatory cytokines (IL-6, IL-12, TNFα, etc.) mediated by NFκB activation, TLR4 signaling can result in the production of type I interferons, a feature that is not only important for activation of dendritic cells leading to good adjuvant activity, but would also be important for rapid defense against a variety of pathogens, particularly viruses. […] To determine the relative ability of all compounds to induce the production of type 1 IFN, each was evaluated in mouse bone marrow derived dendritic cells as shown in Tables 1-3.
as §1
In addition, the levels of IP-10, a surrogate marker of type I IFN, in the supernatants were determined by ELISA (R&D Systems, Minneapolis, Minn.).

[3] = test system: human peripheral blood mononuclear cells (hPBMC); experiment: IL-8 release from human PBMC (ELISA); details: all compounds tested at 10 μM, Cmpd 1 set at 100

Row | Structure (SMILES) | mouse IL-6, area under curve (AUC) values normalized to Cmpd 1 [1] | mouse IP-10, values normalized to Cmpd 1 [2] | human IL-8, values normalized to Cmpd 1 [3]
1 | CC(C)(C)NC(=O)CSc1nc2c([nH]c3ccccc32)c(=O)n1-c1ccccc1 [Compound 32, N-(tert-butyl)-2-((4-oxo-3-phenyl-4,5-dihydro-3H-pyrimido[5,4-b]indol-2-yl)thio)acetamide] | <1 | <1 | 5
2 | O=C(CSc1nc2c([nH]c3ccccc32)c(=O)n1-c1ccccc1)NCC1CCCO1 (stereo not drawn) [Compound 33, 2-((4-oxo-3-phenyl-4,5-dihydro-3H-pyrimido[5,4-b]indol-2-yl)thio)-N-((tetrahydrofuran-2-yl)methyl)acetamide] | 23 | 54 | 8
3 | O=C(CSc1nc2c([nH]c3ccccc32)c(=O)n1-c1ccccc1)NC1CCNCC1 [Compound 34, 2-((4-oxo-3-phenyl-4,5-dihydro-3H-pyrimido[5,4-b]indol-2-yl)thio)-N-(piperidin-4-yl)acetamide] | <1 | <1 | 17
4 | CCCCCCCC/C=C\CCCCCCCC(=O)OCC(COP(=O)(O)OCCNC(=O)CSc1nc2c([nH]c3ccccc32)c(=O)n1-c1ccccc1)OC(=O)CCCCCCC/C=C\CCCCCCCC (stereo not drawn) [Compound 35, (Z)-3-((hydroxy(2-(2-((4-oxo-3-phenyl-4,5-dihydro-3H-pyrimido[5,4-b]indol-2-yl)thio)acetamido)ethoxy)phosphoryl)oxy)propane-1,2-diyl dioleate] | <1 | <1 | <1
5 | O=C(CSc1nc2c([nH]c3ccccc32)c(=O)n1C1CCCCC1)NC1CCCCC1 [Compound 36, N-cyclohexyl-2-((3-cyclohexyl-4-oxo-4,5-dihydro-3H-pyrimido[5,4-b]indol-2-yl)thio)acetamide] | 71 | 61 | 27
6 | O=C(CSc1nc2c([nH]c3ccccc32)c(=O)n1-c1ccc2ccccc2c1)NC1CCCCC1 [Compound 39, N-cyclohexyl-2-((3-(naphthalen-2-yl)-4-oxo-4,5-dihydro-3H-pyrimido[5,4-b]indol-2-yl)thio)acetamide] | 3 | <1 | <1
7 | O=C(CSc1nc2c([nH]c3ccccc32)c(=O)n1CCc1ccccc1)NC1CCCCC1 [Compound 40, N-cyclohexyl-2-((4-oxo-3-phenethyl-4,5-dihydro-3H-pyrimido[5,4-b]indol-2-yl)thio)acetamide] | <1 | <1 | 5
8 | O=C(CSc1nc2c([nH]c3ccccc32)c(=O)n1C1CCCCC1)NC1CCCC1 [Compound 41, 2-((3-Cyclohexyl-4-oxo-4,5-dihydro-3H-pyrimido[5,4-b]indol-2-yl)thio)-N-cyclopentylacetamide] | 47 | 47 | 14
9 | CN(C(=O)CSc1nc2c3ccccc3n(C)c2c(=O)n1-c1ccccc1)C1CCCCC1 [Compound 43, N-cyclohexyl-N-methyl-2-((5-methyl-4-oxo-3-phenyl-4,5-dihydro-3H-pyrimido[5,4-b]indol-2-yl)thio)acetamide] | <1 | <1 | 5
10 | CCCCCn1c2ccccc2c2nc(SCC(=O)NC3CCCCC3)n(-c3ccccc3)c(=O)c21 [Compound 49, N-cyclohexyl-2-((4-oxo-5-pentyl-3-phenyl-4,5-dihydro-3H-pyrimido[5,4-b]indol-2-yl)thio)acetamide] | 5 | <1 | 1
11 | CCCCCCCCCCCCn1c2ccccc2c2nc(SCC(=O)NC3CCCCC3)n(-c3ccccc3)c(=O)c21 [Compound 50, N-cyclohexyl-2-((5-dodecyl-4-oxo-3-phenyl-4,5-dihydro-3H-pyrimido[5,4-b]indol-2-yl)thio)acetamide] | <1 | <1 | <1
12 | N#CCn1c2ccccc2c2nc(SCC(=O)NC3CCCCC3)n(-c3ccccc3)c(=O)c21 [Compound 51, 2-((5-(cyanomethyl)-4-oxo-3-phenyl-4,5-dihydro-3H-pyrimido[5,4-b]indol-2-yl)thio)-N-cyclohexylacetamide] | 98 | 64 | 30
13 | NC(=O)Cn1c2ccccc2c2nc(SCC(=O)NC3CCCCC3)n(-c3ccccc3)c(=O)c21 [Compound 52, 2-((5-(2-amino-2-oxoethyl)-4-oxo-3-phenyl-4,5-dihydro-3H-pyrimido[5,4-b]indol-2-yl)thio)-N-cyclohexylacetamide] | 1 | 1 | 4
